The text below walks through data of PubChem BioAssay AID1159614 (National Center for Advancing Translational Sciences (NCATS), 2016).

Hit rate of the full screen: of about 45,000 compounds, about 65 (0.1%) were called active. The call rests on the fitted dose curve; in most records, active means well fitted activation curve with a large enough effect; inconclusive means small, poorly fitted or top-dose-only effect; inactive means no such curve, though single readings can be large or run the other way. The list shows a part of the results.

The assay has as its target Galactocerebrosidase (Homo sapiens) (UniProt P54803). Briefly: A Novel Cell-Based Assay to Identify Small Molecules for B -Galactocerebrosidase. Further: 0% is about no effect; nearly all actives have a fitted effect of over 65% in size. To be noted: 145M-Twi-hGALC-G270D cells (Twitcher mouse brain line with human GALC G270D), HMU-beta-Gal fluorescence, 48 h; series mostly up to 57.5 µM; activation: at the top concentration. The method, boiled down: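 Live 145M-Twi cells (Twitcher mouse brain-derived, GALC-null) stably expressing human GALC-G270D, with a wild-type GALC line, were compound-treated. Residual GALC activity was then read as fluorescence from 0.1 mM final HMU-β-gal at pH 5.2; higher signal means activation.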
Sequence of UniProt P54803 (P54803 whole entry, looked up): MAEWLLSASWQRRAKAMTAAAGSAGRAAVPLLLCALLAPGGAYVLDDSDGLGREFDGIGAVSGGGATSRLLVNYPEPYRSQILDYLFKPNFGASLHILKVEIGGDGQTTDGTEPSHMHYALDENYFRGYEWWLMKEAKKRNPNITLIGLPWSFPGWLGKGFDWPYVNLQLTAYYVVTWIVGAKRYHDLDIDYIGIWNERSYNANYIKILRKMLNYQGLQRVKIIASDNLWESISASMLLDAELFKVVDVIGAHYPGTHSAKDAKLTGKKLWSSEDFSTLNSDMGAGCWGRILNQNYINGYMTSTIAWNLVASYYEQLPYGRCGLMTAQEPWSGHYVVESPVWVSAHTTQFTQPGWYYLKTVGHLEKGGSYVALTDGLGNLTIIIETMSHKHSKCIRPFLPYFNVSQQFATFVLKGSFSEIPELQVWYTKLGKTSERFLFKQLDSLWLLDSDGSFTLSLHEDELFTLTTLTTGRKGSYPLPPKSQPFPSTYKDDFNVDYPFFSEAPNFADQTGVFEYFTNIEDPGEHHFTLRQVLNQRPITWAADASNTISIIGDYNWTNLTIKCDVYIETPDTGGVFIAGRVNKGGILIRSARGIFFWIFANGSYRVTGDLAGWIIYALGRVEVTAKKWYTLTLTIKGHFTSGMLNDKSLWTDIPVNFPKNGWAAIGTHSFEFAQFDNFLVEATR
Consider `Cc1ccc(Cn2ccnc2SCC(=O)Nc2ccccc2C(F)(F)F)cc1`, for which the “activation” value is inactive: -14.3%.
As for `CC(=O)c1ccc(N2CCN(c3nc4ccccc4c4nc(-c5cccc(C)c5)nn34)CC2)cc1`, the figure is inactive: -13.7%.
Then `CCOc1ccc(NC(=O)Cn2nc(SC)c(S(=O)(=O)c3ccccc3)c2N)cc1`, with inactive: -11.7%; and `O=C(CCC1CCN(Cc2ccccc2)CC1)c1ccc2c(c1)NCCCC2`, with inactive: -18.9%.
As for `CCOc1ccc(NC(=O)Cn2c(=O)n(Cc3ccco3)c(=O)c3ccc(C(=O)NC4CCCC4)cc32)cc1`, the figure is inactive: 7.81%; as for `CCc1nn(CC(=O)N2CCN(c3cccc(Cl)c3)CC2)c(=O)c2cc3sccc3n12`, inactive: 3.64%; as for `Cc1ccccc1N=Nc1ccc(N=Nc2c(O)ccc3ccccc23)c(C)c1`, inactive: -15.3%.
For the molecule `COc1cc(OC)c(NC(=O)Cn2c(SCc3ccccc3F)nc3cccnc32)cc1Cl`, the “activation” value is inactive: -8.2%.
As for `O=C1CC(c2cccc(Cl)c2Cl)c2cc3c(cc2N1)OCCO3` (configuration not stated), the figure is inactive: 9.93%; as for `Cc1c(Cl)cccc1-n1ncc(C(=O)N2CCC(C)CC2)c1C1CCN(C(=O)OC(C)(C)C)CC1`, inactive: 1.09%.
As for `Cc1cc(C)nc(NS(=O)(=O)c2ccc(NC(=O)c3nc(SC(C)C)ncc3Cl)cc2)n1`, the figure is inactive: -6.88%; as for `Cc1ccc(NC(=O)C2CCN(S(=O)(=O)c3ccc4c(c3)CCCN4C(=O)C3CCC3)CC2)cc1`, inactive: -3.07%; as for `O=C(CCS(=O)(=O)c1nc(-c2cccs2)cc(C(F)(F)F)n1)Nc1ccc(F)c(Cl)c1`, inactive: -25.8%.
Consider `O=C(NCCCN1CCCCC1)c1[nH]c2ccccc2c1Sc1ccc(Cl)cc1`, for which the “activation” value is inactive: -6.98%.
For the molecule `Cc1oc(-c2ccc(C(=O)NCc3ccccc3F)cc2)nc1COc1ccccc1`, the “activation” value is inactive: -10.5%.
As for `COc1ccc(NC(=O)CSc2nc(-c3ccccc3)[nH]c2-c2ccccc2)cc1OC`, the figure is inactive: -9.41%.
As for `CCN(CC)c1ccc(NC(=O)CN2CCN(S(=O)(=O)c3cc(Cl)ccc3OC)CC2)cc1`, the figure is inactive: -14.8%; as for `CN(C(=O)C1CCN(c2ncnc3c2nc2n3CCCCC2)CC1)c1ccccc1F`, inactive: -11.9%; as for `CC(=O)c1ccc(N2CCN(C(=O)c3cc4c(s3)-c3ccccc3OC4)CC2)cc1`, inactive: 21.8%.
For the molecule `CC(C)C(NS(=O)(=O)c1ccc2c(c1)oc(=O)n2C)C(=O)NCc1ccccc1` (configuration not stated), the “activation” value is inactive: -13.6%.
`Cc1nc(-c2ccc(S(=O)(=O)N(Cc3ccccc3)C(C)C)cc2)co1`: the “activation” value was inactive: -8.88%.
Then `Cn1cc(C(=O)Nc2ccc(C#N)cc2)c2ccccc2c1=O`, with inactive: -5.87%; and `COc1ccc(CCn2c(=O)c3cccnc3n(CC(=O)Nc3ccc(C)cc3C)c2=O)cc1OC`, with inactive: 1.16%; and `O=C(Nc1cccc(C(=O)OCc2cc(=O)n3c4c(sc3n2)CCCC4)c1)c1cccc(Cl)c1`, with inactive: -17.2%.
Then `COc1cccc(NC(=O)Cn2nnc(C(=O)NCCc3ccccc3)c2N)c1`, with inactive: -5.27%; and `Cc1ccc(Cl)cc1NC(=O)C1CCN(C(=O)c2cnn(-c3ccccc3)c2-n2cccc2)CC1`, with inactive: -16.3%; and `O=C(CSc1nc2c([nH]c3ccccc32)c(=O)n1-c1ccc(F)cc1)NCc1ccc(F)cc1`, with inactive: -10.5%.
With `CCOc1ccc(CCNC(=O)c2ccc3c(c2)nc2n3CCOC2)cc1OCC`, the “activation” value is inactive: -2.41%.
For `CC(C)OCCCNC(=O)CCCn1c(SCC(N)=O)nc2c(sc3ccccc32)c1=O`, the “activation” value was inactive: -7.77%.
Regarding `CCOc1ccc(-c2cc(-c3nc(-c4ccc(C)cc4)no3)[nH]n2)cc1`, the “activation” value was inactive: -6.88%.
Then `CC(=O)c1cccc(NC(=O)C(C)n2c(=O)cc(-c3ccccc3)c3c(C)nn(C)c32)c1` (configuration not stated), with inactive: -21.5%.
Then `COc1cccc(CNC(=O)c2ccc(NC(=O)N3CCCCc4ccccc43)cc2)c1OC`, with inactive: -12.7%.
Consider `CCc1cccc(C)c1NS(=O)(=O)c1c(C)nc2sccn2c1=O`, for which the “activation” value is inactive: -9.4%.
Take `O=C(Cn1c(=O)oc2cc(S(=O)(=O)N3CCCC3)ccc21)NCc1ccc(F)cc1`: the “activation” value is inactive: -2.26%.
As for `COc1cccc(CNC(=O)c2c(C)oc3nc(C)nc(N4CCOCC4)c23)c1`, the figure is inactive: -14.7%; as for `CCOC(=O)C1CCN(C(=O)CSc2n[nH]c(-c3ccc(F)cc3)n2)CC1`, inactive: -6.45%.
Then `COC(=O)CSc1ncc2c(n1)-c1ccccc1N(Cc1cccc(F)c1)S2(=O)=O`, with inactive: -9.62%.
For `CCN1C(=O)c2ccccc2S(=O)(=O)c2ccc(C(=O)NCc3ccccc3Cl)cc21`, the “activation” value is inactive: -15.1%.
Then `O=C(O)[C@@H]1[C@H]2C[C@H]3c4[nH]c5ccccc5c4CCN3C[C@@H]2CC[C@@H]1O`, with inactive: -1.64%.
As for `O=C(Cn1ccc2cc(S(=O)(=O)N3CCCCCC3)ccc21)NCCc1ccc(Cl)cc1`, the figure is inactive: -6.83%; as for `Cc1cccc(C(=O)Nc2ccc(OCc3cc(=O)n4ccsc4n3)cc2)c1`, inactive: 3.5%; as for `O=C(NC1CCCCCC1)C1c2ccccc2C(=O)N1Cc1ccccc1Cl` (configuration not stated), inactive: -10.6%.
Regarding `CCN(CC)S(=O)(=O)c1ccc2c(c1)N(CC(=O)N1CCN(c3ccc(Cl)cc3)CC1)C(=O)CO2`, the “activation” value was inactive: -16.1%.
As for `CC(C)OC(=O)c1cccnc1SCC(=O)Nc1ccc(C(F)(F)F)cc1Cl`, the figure is inactive: 5.76%; as for `Cc1ccc(-n2c3c(cc(C(=O)Nc4cccc(Cl)c4)c2=O)C(=O)CC(C)(C)C3)cc1`, inactive: 21.9%; as for `CCN1CCN(C(=O)c2ccc3c(c2)N(Cc2ccccc2F)C(=O)c2ccccc2S3=O)CC1` (configuration not stated), inactive: -1.23%.
Then `CCc1ccc(NC(=O)C2CCCN(S(=O)(=O)c3c(C)noc3/C=C/N(C)C)C2)cc1` (configuration not stated), with inactive: -4.82%.
